PubChem BioAssay AID485297 (National Center for Advancing Translational Sciences (NCATS), 2010)
Among all 320,000 compounds or so, about 9,100 (2.8%) were called active. Inconclusive means that the source gave no clear call. Such entries were picked first, then a sample of the others. The call rests on the fitted dose curve; in most records, active means well fitted activation curve with a large enough effect; inconclusive means small, poorly fitted or top-dose-only effect; inactive means no such curve, though single readings can be large or run the other way. A potency beside an inconclusive call is a rough fit, not a confirmed value.

Assay: qHTS Assay for Rab9 Promoter Activators; further: nearly all actives have a fitted effect of over 60% in size
Conditions: Huh7 Rab9 promoter-luciferase reporter, luminescence, 24 h; series mostly up to 9.22 µM
Method in brief: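 Huh7 cells stably carrying Rab9 promoter–luciferase reporter, plated 1500 cells/well, compound added after 2 h and incubated 24 h at 37 °C; luciferase luminescence then read after 10 min with detection reagent.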
Potency means the concentration at half of the fitted maximal effect; tags describe the fitted curve by direction and shape.

Potency, active:
Oc1ccc(-c2csc(Nc3ccccn3)n2)c(O)c1 3.16 µM
O=C(Nc1nc2ccc(F)cc2s1)c1ccccn1 0.0891 µM
CCS(=O)(=O)N1CCc2nc(-c3ccccc3)sc2C1 1.12 µM
COc1ccc(-c2nnc(SCC(=O)N3CCOCC3)o2)cc1 4.47 µM
CN(C)c1cccc(C(=O)N/N=C/c2ccsc2)c1 3.55 µM
c1ccc(Nc2nc(-c3ccncc3)cs2)nc1 1.58 µM
COc1ccc(Br)cc1/C=N/Nc1cccc(C(=O)O)c1 1.58 µM
Cc1ccc2nc(-c3ccc(NC(=O)CCN4C(=O)c5ccccc5C4=O)cc3)sc2c1 0.251 µM
Clc1ccccc1-c1nc(-c2ccc(Br)o2)no1 0.708 µM
Cc1ccc(N=Nc2ccc(O)c(/C=N\NC(=O)c3ccc(N)cc3)c2)cc1C 2.82 µM
Cc1ccc(NC(=O)c2oc3ccccc3c2C)nc1 3.16 µM
CC1=C(c2ccc(C)cc2)[N+](=O)C(C)(C)N1[O-] 3.98 µM
Cc1ccc(C(=O)N=c2sccn2C)cc1S(=O)(=O)N1CCOCC1 1.41 µM

Potency, inactive:
Cc1cccc(-c2noc(CCCC(=O)NCC3CCCO3)n2)c1 (centres undefined)
CC(Sc1nc2c(c(=O)[nH]1)CCCC2)C(=O)Nc1ccccc1C#N (centres undefined)
O=C(Nc1cc2c(cc1C(=O)O)OCCCO2)c1ccc(F)cc1F
O=C(CN1CCOCC1)Nc1nc(-c2ccc3c(c2)CCN3S(=O)(=O)c2ccccc2)cs1
CC(=O)NC1=NN(C(C)=O)C(c2ccc(C(C)C)cc2)S1 (centres undefined)
COc1ccc(OC)c(S(=O)(=O)Nc2cc3c4c(c2)C(C)C(=O)N4CCC3)c1 (centres undefined)
O=C1[C@@H]2Cc3c([nH]c4ccccc34)[C@@H](c3ccccc3)N2C(=O)[C@@H]2Cc3c([nH]c4ccccc34)[C@@H](c3ccccc3)N12
Cc1cc(C(=O)N/N=C/C(Cl)=C/c2ccccc2)c(C)o1
CCN(CC)C(=S)Nc1ccc([N+](=O)[O-])cc1
O=C(Nc1ccc(S(=O)(=O)Nc2ncccn2)cc1)c1nn(Cc2ccccc2)c(=O)c2ccccc12
CC(=O)NS(=O)(=O)c1ccc(NC(=O)c2cc(-c3cccs3)nc3ccccc23)cc1
Cc1ccc(C(O)Cn2nc(C)cc2C)cc1 (centres undefined)
CC1CCN(C(=O)CSCC(=O)Nc2nc(-c3cccs3)cs2)CC1
Cc1ccc([N+](=O)[O-])c2cccnc12
O=C(Nc1ccc(NC(=O)c2cccs2)cc1)c1ccc(Br)o1
O=C(Nc1ccccc1)C1=C[C@@H](C2CC2)C[C@@H](OCc2ccc(CO)cc2)O1
COc1ccc(/C=N/NC(=O)c2nn(-c3ccc(Cl)cc3)c(=O)c3c(N)scc23)cc1
COc1ccccc1N=c1oc2cc(O)ccc2cc1C(N)=O
O=C(N/N=C/c1ccc(-c2ccccc2[N+](=O)[O-])o1)c1cccnc1
O=C(CCc1ccccc1)Nc1cc(C(=O)O)cc(C(=O)O)c1
CCCCCC/C(C)=C1/SC(=S)NC1=O
COc1ccc(NC(=O)CSc2nc(O)cc(=O)[nH]2)c(OC)c1
O=C(NN=C1CCCC1)c1ccccc1OCCOc1ccccc1
COc1cc(C)c(NC(=O)COc2ccc3c(c2)OCO3)cc1C
Cc1cc(/C=C\c2nc(O)c([N+](=O)[O-])c(=O)[nH]2)c(C)n1-c1ccccc1

Potency, inconclusive:
NC(=O)C1CCN(Cc2ccc(OCc3ccccc3)cc2)CC1 2.51 µM [activator, partial curve]
CCOC(=O)c1cn2nc(SCc3ccccc3)nc2nc1C 4.47 µM [activator, single point]
CC(=O)Nc1ccc(NC(=O)CC2SC(=O)N(CC(=O)c3ccccc3)C2=O)cc1 (centres undefined) 1 µM [activator, single point]
COc1ccc(OC)c(C=Nc2ccccc2-c2nc3ccccc3[nH]2)c1 3.16 µM [activator, single point]
Cc1ccccc1C(=O)Nc1ccc(N2CCCCCC2)cc1 3.55 µM [activator, partial curve]
Cc1cc(OCc2cc(C(=O)N(C)C(C)c3ccccn3)no2)cc(C)c1Cl (centres undefined) 1.78 µM [activator, partial curve]
Cc1ccc(OCC(=O)O/N=C(\N)c2ccccn2)cc1C 3.16 µM [activator, partial curve]
CC(=O)Nc1cccc(C(=O)OCC(=O)N2CCC(c3ccccc3)=N2)c1 6.31 µM [activator, single point]
COc1ccc(C(=O)/C=C/c2cccs2)c(OC(=O)c2cccc([N+](=O)[O-])c2)c1 3.55 µM [activator, partial curve]
O=C(c1ccc(CSc2nc3ccncc3[nH]2)cc1)N1CCCCCC1 2.51 µM [activator, partial curve]
CN1Cc2sccc2C(c2ccc(O)c(O)c2)C1 (centres undefined) 18.4 µM [activator, partial curve]
CCOC(=O)c1nn(-c2ccccc2)cc1O 2.82 µM [activator, partial curve]
COc1ccccc1CNC(=O)Cc1ccccc1 3.98 µM [activator, partial curve]
COc1ccc(C(=O)Nc2ccc(N3CCN(C)CC3)cc2)cc1 2.82 µM [activator, partial curve]
CCOC(=O)CSc1nc2cc(C)cc(C)c2cc1C#N 1.78 µM [activator, partial curve]
C=CCn1c(SCC(N)=O)nnc1-c1cc2c(s1)CCC(CC)C2 (centres undefined) 3.16 µM [activator, partial curve]
Cc1ccc(/C=N/Nc2ccccn2)s1 2.51 µM [activator, partial curve]
O=C(CC(c1ccccc1)C1CCCCC1=O)c1ccco1 (centres undefined) 1 µM [activator, single point]
Cc1ccc(C(=O)NCc2ccc3c(c2)CCO3)cc1C 2.51 µM [activator, partial curve]
Cc1occc1C(=O)N=Nc1c(O)[nH]c2ccc(Br)cc12 3.98 µM [activator, single point]
CCC(=O)C1CCCN(C(=O)CCc2nnc(C3(c4ccc(Cl)cc4)CCC3)o2)C1 (centres undefined) 3.55 µM [activator, single point]
c1ccc2nc(-c3nccs3)ccc2c1 3.55 µM [activator, single point]
CN(C)c1ccc(Nc2ccc([N+](=O)[O-])cn2)cc1 3.98 µM [activator, partial curve]
Cc1ccc(C(=O)OCC(=O)c2c[nH]c3ccccc23)cc1 3.55 µM [activator, single point]
Oc1[nH]c2ccccc2c1N=Nc1ccccc1F 5.62 µM [activator, single point]
COc1ccccc1C(=O)Nc1nc2ccc(S(C)(=O)=O)cc2s1 5.62 µM [activator, single point]
Fc1ccc(-c2nc3n(n2)Cc2ccccc2-3)cc1 0.708 µM [activator, partial curve, poor fit]
Cc1ccc(NC(=O)/C(C#N)=C(\N)C(Cl)(Cl)Cl)nc1 2.24 µM [activator, partial curve]
COCC(=O)n1nc(-c2ccccc2)nc1NCc1ccc(N(C)C)cc1 2.51 µM [activator, partial curve]
Cc1ccccc1C(=O)O/N=C(\N)Cc1cccs1 6.31 µM [activator, partial curve]
COc1ccc(Nc2ncccc2C(=O)O)cc1 4.47 µM [activator, single point]
N#C/C(=C\c1ccc(-c2ccc(C(=O)O)cc2)o1)C(=O)Nc1ccc(F)cc1 6.31 µM [activator, single point]
COc1ccc(-c2csc(NC(=O)c3ccc(S(C)(=O)=O)cc3)n2)cc1 3.16 µM [activator, single point]
Cc1oc(-c2ccc(-c3ccccc3)cc2)nc1CN(C)C1CCOC1 (centres undefined) 0.562 µM [activator, partial curve]
O=C(CNC(=O)c1ccccc1F)Nc1ccc2c(c1)CCC2 3.55 µM [activator, partial curve]
COc1cccc(C(=O)NC(=S)Nc2cccnc2)c1 3.16 µM [activator, single point]
O=C(NC1CCCCCC1)c1cccs1 4.47 µM [activator, partial curve]
CNC(=O)c1ccc(-c2ccccc2)s1 3.55 µM [activator, partial curve]
CCCOc1ccc([N+](=O)[O-])cc1C1NC(=S)NC(c2ccccc2)=C1C(=O)OCC (centres undefined) 1.26 µM [activator, single point]
O=C1/C(=C/c2ccsc2)CC/C1=C\c1cccs1 10 µM [activator, partial curve]
Cc1ccc(C(=O)N2CCc3ccccc32)cc1 2.51 µM [activator, partial curve]
